# Test results as given in the supplement of paper PMC8728848.
# The list shows a part of the results.
# What was measured:
# Test in all cases: glycan array binding signal (z-score within array); higher = stronger binding
# Details in all cases: glycan notation: IUPAC condensed, linker removed
# [1] = biological target: Gal6S(b1-4)Glc
# In short: (§1)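 Glycan array data came from 3228 arrays in the Consortium for Functional Glycomics database, and only arrays with an available protein sequence were kept. Glycan names were put into IUPAC-condensed notation, and columns mapping to the same glycan were averaged. The binding signal is a within-array Z-score, averaged across arrays of one protein sequence run at different concentrations or buffers and across linkers. A negative Z-score can be read as non-binding.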
# [2] = biological target: Gal6S(b1-4)Glc6S
# In short: as §1
# [3] = biological target: Gal6S(b1-4)GlcNAc
# In short: as §1
# [4] = biological target: Gal6S(b1-4)GlcNAc6S
# In short: as §1
# [5] = biological target: GalNAc(a1-3)Gal
# In short: as §1
# [6] = biological target: GalNAc(a1-3)GalNAc
# In short: as §1
# [7] = biological target: GalNAc(a1-3)GalNAc(b1-3)Gal(a1-4)Gal(b1-4)Glc
# In short: as §1
# [8] = biological target: GalNAc(a1-3)GalNAc(b1-3)Gal(a1-4)Gal(b1-4)GlcNAc
# In short: as §1
# [9] = biological target: GalNAc(b1-3)Gal
# In short: as §1
# [10] = biological target: GalNAc(b1-3)Gal(a1-4)Gal(b1-4)GlcNAc
# In short: as §1
# [11] = biological target: GalNAc(b1-3)Gal(a1-4)Gal(b1-4)GlcNAc(b1-3)Gal(b1-4)Glc
# In short: as §1
# [12] = biological target: GalNAc(b1-3)Gal(a1-6)Gal(b1-4)Glc
# In short: as §1
# [13] = biological target: GalNAc(b1-3)GalNAc
# In short: as §1
# [14] = biological target: GalNAc(b1-3)GlcNAc
# In short: as §1
# [15] = biological target: GalNAc(b1-4)Gal(b1-4)Glc
# In short: as §1
# [16] = biological target: GalNAc(b1-4)GlcNAc
# In short: as §1
# [17] = biological target: GalNAc(b1-4)GlcNAc(b1-2)Man
# In short: as §1
# [18] = biological target: GalNAc(b1-4)GlcNAc(b1-2)Man(a1-3)[GalNAc(b1-4)GlcNAc(b1-2)Man(a1-6)]Man(b1-4)GlcNAc(b1-4)GlcNAc
# In short: as §1
# [19] = biological target: GalNAc(b1-4)GlcNAc(b1-3)GalNAc(b1-4)GlcNAc
# In short: as §1
# [20] = biological target: GalNAc(b1-4)GlcNAc6S
# In short: as §1
# [21] = biological target: GalNAc(b1-6)GalNAc
# In short: as §1
# [22] = biological target: GalNAc3S(b1-4)GlcNAc
# In short: as §1
# [23] = biological target: GalNAc3S(b1-4)GlcNAc3S
# In short: as §1
# [24] = biological target: GalNAc3S(b1-4)[Fuc(a1-3)]GlcNAc
# In short: as §1
# [25] = biological target: GalNAc4S6S(b1-4)GlcNAc
# In short: as §1
# [26] = biological target: GalNAc6S(b1-4)GlcNAc
# In short: as §1
# [27] = biological target: Glc(a1-4)Glc
# In short: as §1
# [28] = biological target: Glc(a1-4)Glc(a1-4)Glc(a1-4)Glc
# In short: as §1
# [29] = biological target: Glc(a1-6)Glc(a1-6)Glc
# In short: as §1
# [30] = biological target: Glc(a1-6)Glc(a1-6)Glc(a1-6)Glc
# In short: as §1
# [31] = biological target: Glc(b1-4)Glc
# In short: as §1
# [32] = biological target: Glc(b1-6)Glc
# In short: as §1
# [33] = biological target: GlcA(b1-3)Gal
# In short: as §1
# [34] = biological target: GlcA(b1-3)GlcNAc
# In short: as §1
# [35] = biological target: GlcA(b1-6)Gal
# In short: as §1
# [36] = biological target: GlcA3S(b1-3)Gal(b1-4)GlcNAc(b1-2)Man
# In short: as §1
# [37] = biological target: GlcA3S(b1-3)Gal(b1-4)GlcNAc(b1-3)Gal(b1-4)Glc
# In short: as §1
# [38] = biological target: GlcNAc(a1-3)Gal(b1-4)GlcNAc
# In short: as §1
# [39] = biological target: GlcNAc(a1-4)Gal(b1-3)GlcNAc
# In short: as §1
# [40] = biological target: GlcNAc(a1-4)Gal(b1-4)GalNAc
# In short: as §1
# [41] = biological target: GlcNAc(a1-4)Gal(b1-4)GlcNAc
# In short: as §1
# [42] = biological target: GlcNAc(a1-4)Gal(b1-4)GlcNAc(b1-3)Gal(b1-4)Glc
# In short: as §1
# [43] = biological target: GlcNAc(a1-4)Gal(b1-4)GlcNAc(b1-3)Gal(b1-4)GlcNAc
# In short: as §1
# [44] = biological target: GlcNAc(a1-4)Gal(b1-4)GlcNAc(b1-3)Gal(b1-4)GlcNAc(b1-3)Gal(b1-4)GlcNAc
# In short: as §1
# [45] = biological target: GlcNAc(a1-4)Gal(b1-4)GlcNAc(b1-3)Gal(b1-4)[Fuc(a1-3)]GlcNAc(b1-3)Gal(b1-4)[Fuc(a1-3)]GlcNAc
# In short: as §1
binder,measurement,setting,value
VLRB.aGPA.23-GCN4-biotin (Petromyzon marinus) (protein) ACPSQCSCSGTEVNCAGKSLASVPAGIPTTTRVLYLNSNQITKLEPGVFDRLANLRELHLWGNQLVSLPPGVFDNLANLEKLWLNSNQLTSLPAGLFDRLVNLEHLGLCCMKLTELPSGAFDKLTRLKQLGLDQNQLKSIPDGAFARLPSLTHVWLHTNPWDCQCTDILYLSGWVAQHSSIVGEGWPWRHSPDSAKCSGTNTPVRAVTEASTSPSKCP,glycan array binding signal (z-score),[1],-0.078
same,glycan array binding signal (z-score),[2],-0.087
same,glycan array binding signal (z-score),[3],-0.083
same,glycan array binding signal (z-score),[4],-0.076
same,glycan array binding signal (z-score),[5],-0.083
same,glycan array binding signal (z-score),[6],-0.07
same,glycan array binding signal (z-score),[7],-0.08
same,glycan array binding signal (z-score),[8],-0.076
same,glycan array binding signal (z-score),[9],-0.076
same,glycan array binding signal (z-score),[10],-0.067
same,glycan array binding signal (z-score),[11],-0.085
same,glycan array binding signal (z-score),[12],-0.081
same,glycan array binding signal (z-score),[13],-0.076
same,glycan array binding signal (z-score),[14],-0.084
same,glycan array binding signal (z-score),[15],-0.07
same,glycan array binding signal (z-score),[16],-0.059
same,glycan array binding signal (z-score),[17],-0.084
same,glycan array binding signal (z-score),[18],-0.068
same,glycan array binding signal (z-score),[19],-0.084
same,glycan array binding signal (z-score),[20],-0.082
same,glycan array binding signal (z-score),[21],-0.073
same,glycan array binding signal (z-score),[22],-0.071
same,glycan array binding signal (z-score),[23],-0.084
same,glycan array binding signal (z-score),[24],-0.082
same,glycan array binding signal (z-score),[25],-0.081
same,glycan array binding signal (z-score),[26],-0.083
same,glycan array binding signal (z-score),[27],-0.077
same,glycan array binding signal (z-score),[28],-0.064
same,glycan array binding signal (z-score),[29],-0.077
same,glycan array binding signal (z-score),[30],-0.076
same,glycan array binding signal (z-score),[31],-0.08
same,glycan array binding signal (z-score),[32],-0.076
same,glycan array binding signal (z-score),[33],-0.078
same,glycan array binding signal (z-score),[34],-0.034
same,glycan array binding signal (z-score),[35],-0.085
same,glycan array binding signal (z-score),[36],-0.084
same,glycan array binding signal (z-score),[37],-0.08
same,glycan array binding signal (z-score),[38],-0.077
same,glycan array binding signal (z-score),[39],-0.077
same,glycan array binding signal (z-score),[40],-0.079
same,glycan array binding signal (z-score),[41],-0.076
same,glycan array binding signal (z-score),[42],-0.071
same,glycan array binding signal (z-score),[43],-0.079
same,glycan array binding signal (z-score),[44],-0.081
same,glycan array binding signal (z-score),[45],-0.069
